From patent US20250327097A1, “ORGANISMS PRODUCING LESS CROTONIC ACID” (Global Bioenergies, priority 2021, published 2025) come the findings set out here.

One assay has as its system TaFdcV. Nature of the assay: Acid binding and cycloadduct formation with TaFdcV (UV-Vis, ESI-MS, co-crystallization). As for the experimental part:
(§1) Incubation of 80 μmol TaFdcV with 10 mM 3-methylcrotonic acid led to a complete shift in the corresponding UV-Vis spectrum.
(§2) In order to assess the scope for activity with acrylic acids lacking extended conjugation, TaFdc and TaFdcV were incubated with trans-2-pentenoic and trans-2-hexenoic acid, compounds that have previously been reported to undergo some AnFdc-mediated decarboxylation.
(§3) The effects of crotonic and 2-butynoic acid on TaFdcV were studied to determine whether the mutations that increase in 3-methylcrotonic acid turnover also affected activity with related compounds. Incubation of TaFdcV with 2-butynoic and crotonic acid led to the familiar split of the 380 nm prFMN peak in the UV-Vis spectrum (FIGS. 7A and D), similar to 3-methylcrotonic acid.
Upon addition of crotonic acid, a gradual shift in UV-Vis spectrum occurs over minutes, allowing estimation of adduct formation rate (FIG. 8A). The observed rate remains first order with respect to crotonic acid, with kobs=0.34±0.03 min at the highest concentration tested (50 mM) (FIG. 8B). In contrast, a similar shift in UV-Vis spectrum upon addition of the substrate 3-methylcrotonic acid occurs rapidly within seconds, and at substantially lower 3-methylcrotonic acid concentrations.
No decarboxylation of the Int1 with 2-butynoic acid was detected, even in 1-month-old crystals. […]

The subject of a further assay is TaFdc. Nature of the assay: Acid binding and cycloadduct formation with TaFdc wild-type (UV-Vis). As for the experimental part: as §1, §2, §3

The structures appear in SMILES notation.

Consider `CC(C)=CC(=O)O` [3-methylcrotonic acid], for which the “binding to TaFdcV, UV-Vis spectrum after desalting” value in the assay with TaFdcV is listed as “long-lived, inhibitory covalent complex with 3-methylcrotonic acid is not formed”. The “binding to TaFdc, UV-Vis spectrum after desalting” value in the assay on TaFdc was “long-lived, inhibitory covalent complex with 3-methylcrotonic acid is not formed”.
`C/C=C/C(=O)O` [crotonic acid]: in the assay with TaFdcV, the “state of the adduct by ESI-MS and co-crystallization” value is recorded as “undergoes decarboxylation to stall at the Int3 species”.
